The results in this text go back to the supplement of paper PMC10037445.

Experiment [1] deals with RAW-Dual. Description: NF-kB SEAP reporter activity, fold change vs agonist alone; higher = enhanced NF-kB activity. In a few lines:
(§1)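 Reporter activity is given as fold change relative to agonist-alone wells. To measure it, 50 nL of library stock was pin-tooled onto RAW-Dual macrophages (50,000 cells/well, DMEM, 384-well plates), a PRR agonist followed 1 h later, and cells stayed at 37 °C, 5% CO2. Twenty hours on, supernatant was assayed for IRF (QuantiLuc luminescence) and NF-κB (QuantiBlue, 620 nm absorbance), and wells under 70% of agonist-control IncuCyte confluency in both mask sets were marked cytotoxic.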

Experiment [2] relates to RAW-Dual. Description: NF-kB SEAP reporter activity, fold change vs agonist alone; cytotoxicity flag (confluency mask): not cytotoxic; higher = enhanced NF-kB activity. The gist of the method:
as §1

Experiment [3] relates to RAW-Dual. The experiment is described as follows: NF-kB SEAP reporter activity, fold change vs agonist alone; cytotoxicity flag (confluency mask): cytotoxic (confluency <70% of control); higher = enhanced NF-kB activity. In a few lines: as §1
The mark [4] stands for this setting: library stock concentration (final ~1000-fold dilution): 10 mM, cytotoxicity flag (confluency mask): not cytotoxic, agonist: Imiquimod (TLR7) […].
Setting [5] is: library stock concentration (final ~1000-fold dilution): 10 mM, cytotoxicity flag (confluency mask): not cytotoxic, agonist: MPLA (TLR4) […].
Setting [6] is: agonist: ODN 1826 (TLR9) 0.5 ug/mL.
Setting [7] is: agonist: Pam2CSK4 (TLR2/6) 0.1 ug/mL.
Where [8] appears, read: agonist: Pam3CSK4 (TLR2/1) 0.1 ug/mL.
Where [9] appears, read: library stock concentration (final ~1000-fold dilution): 10 mM, cytotoxicity flag (confluency mask): cytotoxic (confluency <70% of control), agonist: Imiquimod (TLR7) […].
The mark [10] stands for this setting: library stock concentration (final ~1000-fold dilution): 10 mM, cytotoxicity flag (confluency mask): cytotoxic (confluency <70% of control), agonist: MPLA (TLR4) […].

Where “and” joins values, the source holds several entries; their conditions need not be identical. Equal values may be shown once. Over roughly 2,900 compounds, “NF-kB SEAP reporter activity, fold change vs agonist alone” has its median near 0.99; the highest 2% begin near 2.6. This is one part of the list.

Regarding `Cc1cc(=O)oc2c(C=O)c(O)ccc12`, the “NF-kB SEAP reporter activity” value amounted to 0.796 in experiment [1] (setting [4]) and 0.827 in experiment [1] (setting [5]).

`Cc1cc(=O)oc2c(C=O)c(O)ccc12` (library stock concentration (final ~1000-fold dilution): 10 mM): the “NF-kB SEAP reporter activity” value turned out to be 1.45 in experiment [2] (agonist: LPS (TLR4) 0.1 ug/mL), 0.766 in experiment [2] (setting [6]), 0.886 in experiment [2] (setting [7]) and 0.753 in experiment [2] (setting [8]).

With `CCN(CC)CCOC(=O)C(c1ccccc1)C1CCCCC1.Cl` (stereo unspecified), the “NF-kB SEAP reporter activity” value in experiment [1] (setting [9]) worked out at 1.33; in experiment [1] (setting [10]), 1.03.

In the case of `CCN(CC)CCOC(=O)C(c1ccccc1)C1CCCCC1.Cl` (stereo unspecified) (library stock concentration (final ~1000-fold dilution): 10 mM), the “NF-kB SEAP reporter activity” value in experiment [3] (agonist: LPS (TLR4) 0.1 ug/mL) came to 0.908; in experiment [3] (setting [6]), 0.742; in experiment [3] (setting [7]) it was 0.899; in experiment [3] (setting [8]), 0.593.

As to `Oc1ccc(OC2CCCCO2)cc1` (stereo unspecified), the “NF-kB SEAP reporter activity” value in experiment [1] (setting [4]) was determined as 1.25; in experiment [1] (setting [5]), 1.23.

Turning to `Oc1ccc(OC2CCCCO2)cc1` (stereo unspecified) (library stock concentration (final ~1000-fold dilution): 10 mM), the “NF-kB SEAP reporter activity” value stood at 1.31 in experiment [2] (agonist: LPS (TLR4) 0.1 ug/mL), 1.32 in experiment [2] (setting [6]), 1.27 in experiment [2] (setting [7]) and 1.33 in experiment [2] (setting [8]).

In the case of `O=c1cc(-c2ccc(O)c(O)c2)oc2cc(OC3OC(CO)C(O)C(O)C3O)cc(O)c12` (stereo unspecified), the “NF-kB SEAP reporter activity” value in experiment [1] (setting [4]) was 1.08; in experiment [1] (setting [5]), 1.03.

On to `O=c1cc(-c2ccc(O)c(O)c2)oc2cc(OC3OC(CO)C(O)C(O)C3O)cc(O)c12` (stereo unspecified) (library stock concentration (final ~1000-fold dilution): 10 mM), for which the “NF-kB SEAP reporter activity” value in experiment [2] (agonist: LPS (TLR4) 0.1 ug/mL) was 1.4; in experiment [2] (setting [6]), 1.01; in experiment [2] (setting [7]) it was 1.11; in experiment [2] (setting [8]) it was 1.26.

Consider `O=c1[nH]c(=O)n(C2CC(O)C(CO)O2)cc1F` (stereo unspecified) (library stock concentration (final ~1000-fold dilution): 10 mM), for which the “NF-kB SEAP reporter activity” value in experiment [3] (agonist: LPS (TLR4) 0.1 ug/mL) worked out at 1.54; in experiment [3] (setting [6]), 2.11; in experiment [3] (setting [7]), 1.5; in experiment [3] (setting [8]), 1.51.

As for `O=c1[nH]c(=O)n(C2CC(O)C(CO)O2)cc1F` (stereo unspecified), the “NF-kB SEAP reporter activity” value in experiment [1] (setting [9]) is 2.07; in experiment [1] (setting [10]), 1.49.

As to `COc1ccc(C(=O)C=Cc2cc(OC)c(OC)c(OC)c2)cc1OC` (library stock concentration (final ~1000-fold dilution): 20 mM), the “NF-kB SEAP reporter activity” value amounted to 0.326 in experiment [3] (agonist: LPS (TLR4) 0.1 ug/mL), 0.215 in experiment [3] (setting [6]), 0.0975 in experiment [3] (setting [7]) and 0.176 in experiment [3] (setting [8]).

`COc1ccc(C(=O)C=Cc2cc(OC)c(OC)c(OC)c2)cc1OC`: the “NF-kB SEAP reporter activity” value in experiment [1] (library stock concentration (final ~1000-fold dilution): 20 mM, cytotoxicity flag (confluency mask): cytotoxic (confluency <70% of control), agonist: Imiquimod (TLR7) […]) amounted to 0.192; in experiment [1] (library stock concentration (final ~1000-fold dilution): 20 mM, cytotoxicity flag (confluency mask): cytotoxic (confluency <70% of control), agonist: MPLA (TLR4) […]) it was 0.302.

For the molecule `CN1CCN(C(=O)C2C3CCC(O3)C2C(=O)O)CC1` (stereo unspecified), the “NF-kB SEAP reporter activity” value was determined as 1.21 in experiment [1] (library stock concentration (final ~1000-fold dilution): 10 mM water, cytotoxicity flag (confluency mask): not cytotoxic, agonist: Imiquimod (TLR7) […]) and 1.21 in experiment [1] (library stock concentration (final ~1000-fold dilution): 10 mM water, cytotoxicity flag (confluency mask): not cytotoxic, agonist: MPLA (TLR4) […]).

For `CN1CCN(C(=O)C2C3CCC(O3)C2C(=O)O)CC1` (stereo unspecified) (library stock concentration (final ~1000-fold dilution): 10 mM water), the “NF-kB SEAP reporter activity” value in experiment [2] (agonist: LPS (TLR4) 0.1 ug/mL) amounted to 2.34; in experiment [2] (setting [6]), 1.37; in experiment [2] (setting [7]), 1.78; in experiment [2] (setting [8]), 1.21.

On to `CCCCNc1ncc2c(-c3ccc(CN4CCN(C)CC4)cc3)cn(C3CCC(O)CC3)c2n1.Cl` (stereo unspecified), for which the “NF-kB SEAP reporter activity” value in experiment [1] (setting [9]) was found to be 0.547; in experiment [1] (setting [10]), 0.322.

`CCCCNc1ncc2c(-c3ccc(CN4CCN(C)CC4)cc3)cn(C3CCC(O)CC3)c2n1.Cl` (stereo unspecified) (library stock concentration (final ~1000-fold dilution): 10 mM): the “NF-kB SEAP reporter activity” value in experiment [3] (agonist: LPS (TLR4) 0.1 ug/mL) worked out at 0.236; in experiment [3] (setting [6]) it was 0.351; in experiment [3] (setting [7]), 0.128; in experiment [3] (setting [8]), 0.192.

On to `COc1ccc(S(=O)(=O)Nc2cc(-c3c(O)ccc4ccccc34)c(O)c3ccccc23)cc1` (library stock concentration (final ~1000-fold dilution): 10 mM), for which the “NF-kB SEAP reporter activity” value is 4.3 in experiment [2] (agonist: LPS (TLR4) 0.1 ug/mL), 1.09 in experiment [2] (setting [6]), 1.29 in experiment [2] (setting [7]) and 1.38 in experiment [2] (setting [8]).

For `COc1ccc(S(=O)(=O)Nc2cc(-c3c(O)ccc4ccccc34)c(O)c3ccccc23)cc1`, the “NF-kB SEAP reporter activity” value stood at 1.17 in experiment [1] (setting [4]) and 1.61 in experiment [1] (setting [5]).

Consider `COc1ccc(CC2c3cc(OC)c(OC)cc3CC[N+]2(C)CCC(=O)OCCCCCOC(=O)CC[N+]2(C)CCc3cc(OC)c(OC)cc3C2Cc2ccc(OC)c(OC)c2)cc1OC.O=S(=O)([O-])c1ccccc1.O=S(=O)([O-])c1ccccc1` (stereo unspecified) (library stock concentration (final ~1000-fold dilution): 10 mM), for which the “NF-kB SEAP reporter activity” value is 0.772 in experiment [2] (agonist: LPS (TLR4) 0.1 ug/mL), 0.571 in experiment [2] (setting [6]), 0.511 in experiment [2] (setting [7]) and 0.748 in experiment [2] (setting [8]).

As for `COc1ccc(CC2c3cc(OC)c(OC)cc3CC[N+]2(C)CCC(=O)OCCCCCOC(=O)CC[N+]2(C)CCc3cc(OC)c(OC)cc3C2Cc2ccc(OC)c(OC)c2)cc1OC.O=S(=O)([O-])c1ccccc1.O=S(=O)([O-])c1ccccc1` (stereo unspecified), the “NF-kB SEAP reporter activity” value in experiment [1] (setting [4]) came out at 0.967; in experiment [1] (setting [5]), 0.733.

On to `O=C(O)C(O)Cc1ccc(O)c(O)c1` (stereo unspecified) (library stock concentration (final ~1000-fold dilution): 10 mM), for which the “NF-kB SEAP reporter activity” value amounted to 1.04 in experiment [2] (agonist: LPS (TLR4) 0.1 ug/mL), 0.964 in experiment [2] (setting [6]), 0.768 in experiment [2] (setting [7]) and 1.02 in experiment [2] (setting [8]).

Regarding `O=C(O)C(O)Cc1ccc(O)c(O)c1` (stereo unspecified), the “NF-kB SEAP reporter activity” value is 0.927 in experiment [1] (setting [4]) and 1 in experiment [1] (setting [5]).

Turning to `C[n+]1cc2c3c(ccc2c2ccc4cc5c(cc4c21)OCO5)OCO3` (library stock concentration (final ~1000-fold dilution): 10 mM), the “NF-kB SEAP reporter activity” value in experiment [3] (agonist: LPS (TLR4) 0.1 ug/mL) is 0.268 and 0.364; in experiment [3] (setting [6]), 0.177 and 0.164; in experiment [3] (setting [8]), 0.137 and 0.144.

As to `C[n+]1cc2c3c(ccc2c2ccc4cc5c(cc4c21)OCO5)OCO3`, the “NF-kB SEAP reporter activity” value in experiment [1] (setting [9]) came to 0.141.

For `Cc1cc(C)c(Nc2ccnc(Nc3ccc(C#N)cc3)n2)c(C)c1` (library stock concentration (final ~1000-fold dilution): 10 mM), the “NF-kB SEAP reporter activity” value in experiment [3] (agonist: LPS (TLR4) 0.1 ug/mL) came out at 0.831; in experiment [3] (setting [6]), 0.415; in experiment [3] (setting [7]) it was 0.452; in experiment [3] (setting [8]), 0.382.

Regarding `Cc1cc(C)c(Nc2ccnc(Nc3ccc(C#N)cc3)n2)c(C)c1`, the figures for the “NF-kB SEAP reporter activity” value in experiment [1] (setting [9]) and in experiment [1] (setting [10]) were 0.925 and 1.53, respectively.
